Source: PubChem BioAssay AID1671194 (National Center for Advancing Translational Sciences (NCATS), 2021)
Out of some 140,000 compounds screened, about 240 (0.17%) were called active. The inconclusive results got no clear call from the source; some entries with a clear call stand among them for comparison. Calls follow the shape of the dose curve; as a rule, active = well fitted inhibition curve with a large enough effect; inconclusive = small, poorly fitted or top-dose-only effect; inactive = no such curve, though single readings can be large or run the other way. Where the call is inconclusive, the potency comes from a doubtful curve fit.
Potency is read from the fitted curve at half-maximal effect; tags tell the direction and shape of the fitted curve.

Assay: Primary qHTS assay for inhibitors of alpha-synuclein gene (SNCA) expression; also: nearly all actives have a fitted effect of over 45% in size;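 as to activity change, negative = inhibition: plate controls were DMSO cells for no effect and cell-free wells for full effect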
Details: HEK-293 SNCA-luciferase knock-in, luminescence, 24 h; activity change, negative = inhibition: at 57.2 µM (top of the series) unless noted
For COc1cccc(CNC(=O)Cn2c(C)cc3nc4n(c(=O)c32)CCCCC4)c1, the “activity change, negative = inhibition” value was inactive: -4.99%. For CCOc1ccccc1C(=O)N1CCC(Oc2ncccc2C(=O)N2CCCCC2)C1 (configuration not stated), the Potency was inconclusive: 14.1 µM [inhibitor, partial curve, poor fit]. For CCN1C(=O)C2CC3(CCN(C(=O)CCc4c(C)nn(C)c4C)CC3)CN2C1=O (configuration not stated), the “activity change, negative = inhibition” value was inactive: -14.2%. In the case of COc1cccc(-c2cn3cc(C(=O)NCCc4ccccc4)nc3s2)c1, the “activity change, negative = inhibition” value is reported as inactive: 9.57%. With CNC(=O)c1cc(Nc2cccc(N(C)C)c2)cc2c1OCCN2Cc1cccnc1 the “activity change, negative = inhibition” value was inactive: 5.6% [at 87.6 µM]. In the case of Cn1cc(C(=O)NCC2CN(C(=O)c3ccc(Oc4ccccc4)cc3)CC23CN(c2ccccc2)C3)cn1 (configuration not stated), the “activity change, negative = inhibition” value is reported as inactive: -38.4%. In the case of O=C(NCc1ccncc1)c1nc2c(o1)CCN(Cc1nccs1)CC2, the “activity change, negative = inhibition” value is reported as inactive: -24.7% [at 87.6 µM]. In the case of Cc1ccc(NC(=O)c2nc(S(=O)(=O)Cc3ccc(F)cc3)ncc2Cl)cc1C, the Potency is reported as inconclusive: 39.8 µM [inhibitor, single point]. For CCOC(=O)c1[nH]c(C)c(CCC(=O)N2CCN(c3cc(C)ccc3C)CC2)c1C, the Potency was inconclusive: 39.8 µM [inhibitor, single point]. In the case of CCc1nc(CN2CCC(N3CCCC(C(=O)NCc4ccccn4)C3)CC2)no1 (configuration not stated), the Potency is reported as inconclusive: 1.41 µM [inhibitor, full curve]. For c1ccc(-c2cnc(Nc3ccc4c(c3)OCCO4)c3c2CCO3)cc1, the “activity change, negative = inhibition” value was inactive: -5.92% [at 87.6 µM]. For COc1cccc2c(NCc3ccccc3)nc(-n3c(N)nc4ccccc43)nc12, the Potency was inconclusive: 42.9 µM [inhibitor, single point]. With COc1ccc(CNC(=O)CN2C(=O)COc3ccccc32)c(OC)c1 the Potency was inconclusive: 2.82 µM [inhibitor, partial curve, poor fit]. In the case of Oc1ccccc1-c1nc2cnccn2c1Nc1ccc(Cl)cc1, the Potency is reported as inconclusive: 31.6 µM [inhibitor, partial curve, poor fit]. In the case of Cn1ccc(C(=O)N2CC3ON=C(C(=O)N4CCOCC4)C3C2)n1 (configuration not stated), the Potency is reported as inconclusive: 0.891 µM [inhibitor, full curve, poor fit]. With Nc1nccc(Oc2ccc(NC(=O)c3c[nH]cc(-c4ccc(F)cc4)c3=O)cc2F)c1Cl the Potency was inconclusive: 42.9 µM [inhibitor, single point]. In the case of CO[C@H]1C(=O)N(C2CCN(C(=O)c3nccc4ccccc34)CC2)[C@H]1c1ccncc1, the “activity change, negative = inhibition” value is reported as inactive: 29.6%. For O=C(Cc1ccc(F)cc1)N1CCC2(CC1)CC(=O)N(c1ccccc1)c1ccccc1O2, the Potency was inconclusive: 14.1 µM [inhibitor, single point]. In the case of O=S(=O)(NCCc1csc(-c2cccc(F)c2)n1)c1cc(F)ccc1F, the Potency is reported as inconclusive: 2.51 µM [inhibitor, single point]. For CCN1CCN(C(=O)C2CCc3nnc(C4CCN([S+](C)(=O)[O-])CC4)n32)CC1 (configuration not stated), the “activity change, negative = inhibition” value was inactive: 7.61%. For CN(C)C(=O)c1n[nH]c2c1CN(C(=O)CCc1ccccc1)CC2, the Potency was inconclusive: 0.708 µM [inhibitor, single point]. In the case of O=C1NCc2ccccc2CC12CCCN2Cc1ccsc1 (configuration not stated), the Potency is reported as inconclusive: 7.94 µM [inhibitor, single point]. In the case of COc1ccc(Cl)cc1NC(=O)Cn1c(=O)n(-c2ccc(C)cc2)c(=O)c2ccc(C(=O)NCc3ccccc3Cl)cc21, the Potency is reported as inconclusive: 7.94 µM [inhibitor, single point]. In the case of COc1cccc(CCC(=O)N2CCC3(CC2)N=C(c2ccc(Cl)cc2)NO3)c1, the Potency is reported as inconclusive: 31.6 µM [inhibitor, single point]. In the case of COCCNC(=O)c1cn2cc(-c3ccc(C)cc3)sc2n1, the “activity change, negative = inhibition” value is reported as inactive: 111% [at 87.6 µM]. With O=C(CCc1ccccc1)N1CC[C@H]2COC(=O)N2c2cc(F)ccc2C1 the Potency was inconclusive: 12.6 µM [inhibitor, single point]. In the case of CC1=C(C#N)C(NC(=O)c2ccccc2)(C(F)(F)F)C(=O)N1 (configuration not stated), the Potency is reported as inconclusive: 39.8 µM [inhibitor, single point]. With Cc1ccc(NS(=O)(=O)c2ccc3c(c2)CCN3C(=O)C2CC2)c(C)c1 the Potency was inconclusive: 11.2 µM [inhibitor, partial curve, poor fit]. In the case of CC(C)c1ccccc1NC(=O)C(Cc1c[nH]c2ccccc12)NC(=O)OC(C)(C)C (configuration not stated), the Potency is reported as inconclusive: 39.8 µM [inhibitor, single point]. In the case of CN1CCNc2cc(-c3ccc(N4CCOCC4)cc3)ncc2C1, the “activity change, negative = inhibition” value is reported as inactive: 31.8% [at 87.6 µM]. For N#Cc1cccc(NC(=O)Nc2ccc(=O)n3c2[C@@H]2C[C@@H](CN(C(=O)COc4ccccc4)C2)C3)c1, the Potency was inconclusive: 28.2 µM [inhibitor, partial curve]. In the case of COc1ncccc1-c1cn(C)c(=O)n2cc(CN3CC[S+](=O)([O-])CC3)nc12, the “activity change, negative = inhibition” value is reported as inactive: -18.1% [at 87.6 µM]. For O=C(c1ccncc1)N1CCC2(CC1)NCc1ccccc1NC2=O, the Potency was inconclusive: 12.6 µM [inhibitor, partial curve, poor fit]. With CCCCC1C=CCN1C(=O)c1cc(COc2ccc(F)cc2F)[nH]n1 (configuration not stated) the “activity change, negative = inhibition” value was inactive: 9.99%. For COc1ccc(C2CC(=O)c3cc(-c4nc(-c5ccc(C)cc5)cs4)c(=O)[nH]c3C2)cc1 (configuration not stated), the Potency was inconclusive: 1 µM [inhibitor, full curve, poor fit]. For CCC(CC)NC(=O)c1cnc2cc(C)nn2c1, the Potency was inconclusive: 31.6 µM [inhibitor, single point]. In the case of N#Cc1cccc(S(=O)(=O)N2CC(C(=O)NC3CCCCC3)C3(CCOCC3)C2)c1 (configuration not stated), the “activity change, negative = inhibition” value is reported as inactive: -15.2%. For COCC1CN(Cc2ccc(C(F)(F)F)cc2)CC12CCNCC2 (configuration not stated), the “activity change, negative = inhibition” value was inactive: -7.45%. With O=C(c1ccc(Cl)cc1)N1CCN(c2nccc(Nc3ccccc3F)n2)CC1 the Potency was inconclusive: 39.8 µM [inhibitor, partial curve, poor fit]. For CCN(Cc1cnn(CC)c1)C(=O)C1CCCCC(=O)N1Cc1cccc(OC)c1 (configuration not stated), the Potency was inconclusive: 1.26 µM [inhibitor, full curve, poor fit]. With CC(C)(C)c1ccc(C(=O)Nc2ccc(NC(=O)c3ccc(Cl)c(Cl)c3)cc2)cc1 the Potency was inconclusive: 28.2 µM [inhibitor, partial curve, poor fit]. For CN1C(=O)c2cccn2CC1CNC(=O)c1cn[nH]c1-c1ccc(F)cc1 (configuration not stated), the Potency was inconclusive: 11.2 µM [inhibitor, partial curve].
